# Test results taken from the supplement of paper PMC11417369.
# ± gives the standard deviation of the averaged measurements. The list shows a part of the results.
# System: PfAP2-G AP2 domain (GST-tagged)
# Assay: gcPBM binding intensity (ln(normalized median fluorescence intensity)); higher = stronger DNA binding
# Method in brief: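 Plasmodium falciparum DNA-binding domains carrying a GST tag were expressed in E. coli and applied for 1 h, at about 25 μg on average, to an Agilent 4 × 180k array. The array held primer-extended double-stranded 36-bp intergenic genomic probes together with negative controls, and binding took place in 1× PBS with 1% milk, 0.2 mg/ml BSA, 0.5% salmon testes DNA and 0.03% Triton X-100. An Alexa488 anti-GST antibody detected bound protein, and the array was scanned at 488 nm. Binding intensity is taken as the highest Masliner-normalised natural-log median intensity across replicate spots of either probe orientation.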
row,Sequence,gcPBM binding intensity (ln)
1,AATGTGCAAACAAACTGTACTTTTTTTTTTTTTTTT [XGTACX_site928],11.6 ± 0.93
2,AGATTTATTCATTCATGTACTTATTTATTTTATTTT [XGTACX_site6702],11.2 ± 0.69
3,TATAAATAAAAGTGTACACACATTAAAATCAAACGT [CACACA_site5316],11.7 ± 0.89
4,AATAATAATGCTTTAACTTTGTTGTTATTTAGAATA [CACACA_negctrl_site1144],9.525 ± 0.049
5,CATACATATATACATACACACACATATAACCAATGT [CACACA_site8679],10.2 ± 0.11
6,TTTGTATTACGTTTGTGTACATATACAATGTGTTTT [XGTACX_site7708],11.3 ± 0.76
7,TCCATGCATTGACACACACACAAAAAAAAATTCTTT [CACACA_site7847],10.2 ± 0.24
8,TTTATTTATTTATGGACACACATACAAATCTTCCAG [CACACA_site4676],11 ± 0.59
9,TATATAATTATTTTTTGTACTCATAATAATATGAAA [XGTACX_site289],11.4 ± 1
10,AATAATAATAAAAAGGTGCTGAAATATTTTTATTAT [GTGCAC_site9763],9.935 ± 0.035
11,GCTTAATACAGAATAACACACAAAATAAATAAATAA [CACACA_site4041],10 ± 0.12
12,TTTTTTTTTTTTTTTGCACACTTAAATTTGGTGGCT [CACACA_site5319],9.89 ± 0.4
13,GACATATATACCAAACGTACATATGTGCAAGCATAA [XGTACX_site3089],11.1 ± 0.8
14,TTGGCTATAGCCAATTGTACTTTTTCTCTTTGGCTT [XGTACX_site1119],11.4 ± 1
15,TCTTGATTAACTTAAAAAAAAAAAAAAAAAAAAAAA [CACACA_negctrl_site458],9.48 ± 0.35
16,CATATAATAAATAATTGTACTTGATATAATATTATG [XGTACX_site3562],11 ± 0.55
17,TATATTTGTGCGTGTACACATTTGAAAAAATATATA [CACACA_site5079],11.6 ± 0.88
18,AAAAAAAAAAAAAATATATATATATATATATATATA [CACACA_negctrl_site540],10.1 ± 1
19,TTTTTTTTTTTTTTTTGTACATAAATTTTTATTAGA [XGTACX_site6409],10.9 ± 0.99
20,ATATGTACAAAATAAGCACACACAAAAAAAAAAAAA [CACACA_site8984],10.8 ± 0.75
21,ATTATATAAACCAAATGTACAAAAAGGTCGTAGTGG [XGTACX_site1298],11.16 ± 0.11
22,CAACATTGTTCCTATTGTACATGAACTGTTCATACG [XGTACX_site4070],10.9 ± 0.52

row,Sequence,gcPBM binding intensity (ln)
1,TATGAGAAAAAAAGTACATGCACAAAATGTATATGT [TGCATGCA_site789],11.5 ± 1.1
2,AGACACGTATACGATGCACACGTATGCTTTATATAT [CACACA_site9363],10.18 ± 0.049
3,ATTATTAAGGTTTATTCAAAAAAGACGTTTTTAAAT [CACACA_negctrl_site1059],9.795 ± 0.078
4,TACCTAATATGTTATACACACATTATGAGTACATAT [CACACA_site2466],11.4 ± 1.1
5,GAATAATATATATGTTCACACATGGTCTTTATTATA [CACACA_site5457],10.3 ± 0.28
6,GTTATATAAACATATGCATGTGAAGTGTTTATTAAT [TGCATGCA_site183],9.8 ± 0.2
7,TTTTTTTTTCCTTTTTTTTAAATATTAAAAATGGGA [TGCATGCA_negctrl_site494],9.91 ± 0.22
8,TATATATATATAATTGCACACATCAAGTTTGATGTT [CACACA_site1288],9.95 ± 0.27
9,GTTGTATACAATAATGTGCACATATTAATTTGAACT,10.5 ± 0.3
10,AAATGTACAGGACGCACACACATATTTATATTTATA [CACACA_site7689],11.1 ± 0.91
11,TCATTGAAAAAAATCTGTACTGACTATATAGTTGCA [XGTACX_site1566],10.9 ± 0.58
12,CTTATTTACTATTTTTCACACATTACAGATAAACAA [CACACA_site6095],10.06 ± 0.064
13,TAAGTTTTGTTTTTTTGTACTCATTCATACTATCAT [XGTACX_site3638],11.3 ± 0.68
14,TAAATATATATATATAGTACAATATAATTATGATAT [XGTACX_site258],10.9 ± 0.66
15,AATATAATATTATATAGTACATATTTCTTTTATTTT [XGTACX_site22],10.8 ± 0.67
16,TTTTCTTAATATTTCGTTTTACATAAACCTTTTAAA [CACACA_negctrl_site660],9.97 ± 0.12
17,TATATATATATAAGTAGTACAATAATATATTATTTT [XGTACX_site6450],11.5 ± 1
18,TTTTACATCATATATAGTACATATATTATACATATA [XGTACX_site8590],10.9 ± 0.62
19,AAAATAAATAAAAAAAGTACATATATAATTTATAAA [XGTACX_site2411],11.5 ± 0.88
20,ATATATTTTCATTTTACACACAAATAAAGATAATTT [CACACA_site2996],10.2 ± 0.45
21,GAACACTAATAATGTTGTACACGTAATTATATATTT [XGTACX_site777],11.5 ± 0.92
22,AAACACACACACAAATGTACATATATATATATATTT [XGTACX_site5090],10.9 ± 0.68

row,Sequence,gcPBM binding intensity (ln)
1,TCTTGATACAAACATTTAAATAAATAAATAAAAAAA [GTGCAC_negctrl_site41],9.82 ± 0.11
2,AAAATACACGCATACACACACACACCGACACATATA [CACACA_site4523],10.3 ± 0.27
3,TGTTGTGATATATTAAAATCGTCCCTTATAATTTTA [GTGCAC_negctrl_site595],10.1 ± 0.17
4,TAATATTATATTTATAGTACATATAATATATATATA [XGTACX_site2964],10.8 ± 0.67
5,TGTTATATAATTTAGCGTACAGGTTATAGGACGGAT [XGTACX_site8823],11.5 ± 0.95
6,AACTATTACTTTCTTTCACACATTTTTTTTTTTTTT [CACACA_site5355],9.935 ± 0.007
7,ATATATATATATAGTGCACACTTAAGAATATAAAGA [CACACA_site4771],10.4 ± 0.28
8,ATATAATGAATTATTAGAAAATAAAATGAATAAAGT [CACACA_negctrl_site690],10.055 ± 0.007
9,AACTCTTAGAATGACGGTACAGTATAATAGGTGAAC [XGTACX_site7163],10.6 ± 0.35
10,ATCATATAAACATATTGTACTTAAATACATAATATT [XGTACX_site3800],11.2 ± 0.64
11,CAAACCCACGGACACACACACACAAAAATGATTAAA [CACACA_site5365],11 ± 0.75
12,TTTATTTATTTATGTGGTACTTCAAAAATATATACT [XGTACX_site355],11.3 ± 0.59
13,GGATACGCTTTTGTACCACTCCCCCTTTTGGGAATA [CACACA_negctrl_site1363],11.4 ± 0.97
14,TTTTTGTAATATTATGATGTCATATATATATATATA [XGTACX_negctrl_site618],10.1 ± 0.33
15,ATATTTTGTAACTATACACACATATATATATTATAA [CACACA_site3062],10 ± 0.15
16,TCAGATATATAGAATACACACATGGATATAAGAAAT [CACACA_site7831],10 ± 0.028
17,ATAGATCCTAATGTTGTGCACATGTAAATTAATATA,10.6 ± 0.28
18,TTTATACAATAAAATGCATGCAAGTATCTATTTTAT [TGCATGCA_site210],10 ± 0.28
19,AAATTGGGTACAAATACACACACATATATATATTAA [CACACA_site8745],11.2 ± 0.89
20,TATAATGAACATATGTGTACATATATTTTTTAAATT [XGTACX_site8736],11.4 ± 0.72
21,AAAAAACAAAAAAAAAAAAAAATAATACAATATAAT [CACACA_negctrl_site1630],9.49 ± 0.099
22,ACCATATAAATAAACACACACACACCGATATATATA [CACACA_site5310],10 ± 0.16

row,Sequence,gcPBM binding intensity (ln)
1,GCACAACATATATTATCACACACATATATATATATA [CACACA_site8619],10.3 ± 0.56
2,CGCGAAGTAGCATTCACACACAGCAAAATATAAATA [CACACA_site7608],10.02 ± 0.035
3,CAAAAGAATATATGTAGTACATGTTGTAGATAATAT [XGTACX_site1044],11.5 ± 0.93
4,TTAATATGAAATAAATGTACATAATACATAATAAAA [XGTACX_site6194],11.1 ± 0.67
5,AACACGCGCGGACACACACACACACCCACATATATA [CACACA_site5252],11.4 ± 0.89
6,GTTTTTAGTATTTTTTGTACTTAATACATAGCCTTA [XGTACX_site7318],11 ± 0.65
7,AATTGAAAAATATATAAGAAGAAATATATATATGTT [GTGCAC_negctrl_site97],9.8 ± 0.15
8,AAAATAAGTAATTACTAATATATAAATTAATAATTA [CACACA_negctrl_site1602],9.62 ± 0.014
9,AATATAAATTAATTTACACACTAAAAAATATATATA [CACACA_site3778],9.915 ± 0.035
10,ATTTATATCTCCATATGTTCAAAACTTTCACAAATA [TGCATGCA_negctrl_site108],10 ± 0.12
11,TATTAACAAATTTATGTGCACTGAGGACAAATATAT,11 ± 0.59
12,CCTTAATATTTTTGAAGTACATATTTATTTTACAAG [XGTACX_site3049],11.4 ± 0.86
13,AAATAGAAGAAATATGCACACATACATTGAAATGTT [CACACA_site7996],9.95 ± 0.028
14,TTTTCTTCATAAATGCTGCACTGGTTTAAGCATGAT,9.83 ± 0.099
15,TTTATTAATAAACACACACACACACCCAAAATAAAA [CACACA_site7966],10.4 ± 0.37
16,AAAGAAAAAAAAATTACACACATATATTATATATAT [CACACA_site3211],9.72 ± 0.071
17,AAATCAGAACCTATTTGTACATATACAAAAATGATT [XGTACX_site2421],10.8 ± 0.52
18,TATGTATTCATATGTTGTACATTATATATAATAAGT [XGTACX_site6589],11.2 ± 0.79
19,AGCACACAAAAAAAAAAAAAAAAAAAAAAAGGAATG [GTGCAC_negctrl_site73],10.03 ± 0.092
20,ATTTTTTTAAGATAAGAAAAATAAAGTGTGGATATT [XGTACX_negctrl_site476],10.2 ± 0.21
21,TTTTAATTAGCTAGACGTACAATAATATACAAATAT [XGTACX_site6068],11.5 ± 0.95
22,CATATGTAGGGAACAATATAATATGCTTTGAATATG [GTGCAC_negctrl_site524],10.2 ± 0.14
